Data published in the supplement of paper PMC12217912.
The list shows a part of the results. Sequences were assembled here from the parent chain. Inactive controls read about 0.05.

B1: TEV protease; numbered along this chain (parent)
chain: MGESLFKGPRDYNPISSSICHLTNESDGHTTSLYGIGFGPFIITNKHLFRRNNGTLVVQSLHGVFKVKDTTTLQQHLVDGRDMIIIRMPKDFPPFPQKLKFREPQREERICLVTTNFQTKSMSSMVSDTSCTFPSGDGIFWKHWIQTKDGQCGSPLVSTRDGFIVGIHSASNFTNTNNYFTSVPKNFMELLTNQEAQQWVSGWRLNADSVLWGGHKVFMVKPEEPFQPVKEATQL

Variants of: B1
Test: raw area under fraction-flipped curve 0-4 h after induction (AUC4h, not background-subtracted), DNA-recorder readout of cleavage of the substrate (dimensionless); higher = more cleavage of the substrate by the protease variant
Settings: temperature: 34 °C; time window: 0-4 h after rhamnose induction
Description: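 In vivo DNA recorder in E. coli TOP10(DE3) ΔrhaA at 34 °C. Each TEVp single-site mutant (parent TEVp 0) is paired with a single-site variant of the 7-mer TEVs (canonical ENLYFQ|S). The substrate sits between flexible linkers in a Bxb1-sfGFP-TEVs-SsrA fusion, so cleavage stabilises Bxb1 and speeds flipping of a recombination array, read by NGS. The value is the raw area under the fraction-flipped curve over 0-4 h after rhamnose induction (AUC4h), with ≥20 reads per time point. It is not background-subtracted; inactive controls average about 0.047.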
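Note: Bxb1 expression induced with 0.2% (w/v) L-rhamnose at OD600 near 0.5, cultures sampled hourly, flipped fraction per protease–substrate barcode pair counted by paired-end Illumina sequencing.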

Variant | area with substrate ENLYCQS | area with substrate ENLYDQS | area with substrate ENLYEQS | area with substrate ENLYGQS | area with substrate ENLYHQS | area with substrate ENLYKQS | area with substrate ENLYLQS | area with substrate ENLYMQS | area with substrate ENLYNQS | area with substrate ENLYPQS | area with substrate ENLYQQS | area with substrate ENLYSQS | area with substrate ENLYTQS | area with substrate ENLYVQS | area with substrate ENLYYQS | area with substrate ENLYIQS | area with substrate ENLYRQS | area with substrate ENLYWQS
Q105A | 0.0805 | 0.0625 | 0.0809 | 0.0581 | 0.0579 | 0.06 | 0.0703 | 0.0863 | 0.0791 | 0.0696 | 0.0623 | 0.0702 | 0.0871 | 0.117 | 0.0704 | – | – | –
I19F | 0.0693 | 0.0983 | 0.0492 | 0.0587 | 0.0631 | 0.0621 | – | 0.064 | 0.0634 | 0.0633 | 0.0593 | – | 0.0633 | 0.0649 | 0.0646 | 0.0783 | 0.0604 | 0.0513
K185F | 0.0871 | 0.0589 | 0.0708 | 0.0709 | 0.0705 | 0.0749 | 0.0805 | 0.0629 | 0.0752 | – | 0.0684 | 0.0918 | 0.0924 | – | 0.0672 | – | 0.0701 | 0.0859
N175P | 0.0675 | 0.0509 | 0.0515 | – | – | 0.0532 | – | 0.0612 | 0.0608 | – | 0.0507 | – | – | – | 0.0595 | 0.0769 | 0.0353 | –
C131T | 0.107 | 0.0577 | 0.0938 | – | 0.0892 | 0.0556 | 0.0932 | – | 0.0812 | 0.0884 | 0.0803 | 0.0693 | – | 0.136 | – | 0.124 | 0.0748 | 0.0615
I15W | 0.0841 | 0.0581 | 0.0664 | 0.0715 | 0.0715 | 0.0674 | 0.0914 | 0.0829 | 0.0665 | 0.0728 | 0.058 | 0.0601 | 0.0853 | – | 0.0569 | 0.106 | 0.0579 | –
K142H | 0.109 | 0.0665 | 0.0647 | 0.0594 | 0.0822 | 0.0606 | 0.115 | 0.0865 | 0.0723 | 0.0751 | 0.043 | 0.0769 | 0.079 | 0.133 | – | 0.13 | 0.0614 | 0.0731
K66V | 0.122 | 0.0576 | 0.0649 | – | 0.0841 | 0.074 | 0.0762 | – | – | – | 0.0535 | 0.0993 | – | – | – | 0.114 | – | 0.106
F41L | 0.0752 | 0.0614 | 0.0643 | 0.0443 | 0.0624 | 0.0594 | 0.118 | 0.103 | 0.0556 | 0.0727 | 0.0622 | 0.0563 | 0.0774 | 0.147 | – | 0.0998 | 0.0645 | 0.081
K185E | 0.115 | 0.0389 | 0.0746 | 0.0641 | 0.0696 | 0.0306 | – | 0.126 | 0.0583 | 0.0701 | 0.0693 | 0.107 | 0.0845 | 0.145 | 0.041 | 0.151 | 0.0681 | 0.0947
G202L | 0.0641 | 0.0634 | 0.0661 | 0.0552 | 0.0387 | – | 0.053 | 0.0639 | 0.0735 | 0.0577 | – | 0.0601 | 0.0487 | 0.0821 | 0.0591 | – | 0.0604 | 0.0416
K185I | 0.108 | – | 0.0697 | 0.0651 | 0.0655 | 0.0559 | – | – | 0.0633 | 0.0733 | 0.0646 | – | – | – | – | 0.131 | – | 0.0884
M122L | 0.0928 | 0.0673 | 0.0771 | 0.0519 | 0.0594 | 0.0561 | – | 0.0726 | 0.079 | 0.0694 | – | 0.0768 | 0.0727 | – | – | 0.133 | – | –
F140A | 0.0436 | – | – | 0.0858 | 0.0699 | – | – | – | 0.0636 | 0.048 | – | – | – | 0.0665 | – | – | – | 0.0634
A207E | 0.0961 | 0.0594 | 0.0613 | 0.0808 | 0.077 | 0.0854 | – | – | 0.0698 | – | 0.0618 | – | – | – | – | – | – | 0.122
N13A | 0.0939 | 0.0574 | 0.0745 | – | 0.076 | 0.0688 | – | 0.0802 | 0.0665 | 0.0739 | 0.0488 | 0.0765 | 0.0457 | 0.101 | 0.0591 | 0.109 | 0.0675 | 0.0886
C20D | 0.0492 | – | 0.0194 | 0.0432 | 0.0473 | – | – | 0.0559 | 0.0476 | 0.0506 | 0.0491 | 0.0482 | – | 0.0415 | – | – | 0.0476 | 0.0254
L61K | 0.0878 | 0.0573 | 0.0834 | – | 0.0569 | 0.0662 | 0.0072 | 0.105 | 0.0766 | – | – | – | – | 0.121 | – | 0.113 | 0.0707 | –
Y179Q | 0.0623 | 0.0511 | 0.0549 | 0.0607 | 0.0692 | 0.0414 | – | 0.0578 | 0.0637 | 0.0666 | 0.0551 | 0.057 | – | 0.0569 | 0.0528 | 0.0604 | 0.0592 | 0.0588
F95G | 0.0671 | – | 0.0619 | 0.0442 | 0.0577 | – | – | 0.0582 | 0.058 | 0.0482 | – | – | – | 0.0722 | – | 0.0684 | 0.0321 | –
G54Y | 0.0592 | 0.0685 | 0.0643 | – | 0.0566 | – | 0.0303 | 0.0625 | – | 0.0829 | 0.0712 | 0.0385 | – | – | – | 0.0837 | 0.0562 | 0.0724
G28E | 0.0775 | 0.0616 | 0.0685 | 0.0584 | 0.0598 | 0.0543 | – | 0.0854 | 0.0604 | 0.0712 | – | 0.0713 | 0.0846 | 0.104 | 0.0683 | – | 0.0726 | 0.0707
W199D | 0.0671 | – | 0.0549 | 0.0354 | 0.0591 | 0.0825 | 0.0513 | 0.0558 | 0.061 | – | 0.0688 | 0.0779 | 0.0548 | 0.0579 | – | – | 0.0726 | 0.0731
S60D | 0.0669 | 0.0234 | 0.0512 | 0.0799 | 0.0637 | – | – | 0.0752 | 0.0576 | 0.0621 | 0.0655 | – | 0.0665 | 0.106 | 0.0458 | – | 0.0507 | 0.0628
I85D | 0.0318 | 0.0326 | 0.0614 | 0.0429 | 0.0366 | – | – | 0.0402 | 0.04 | 0.0424 | – | – | – | – | – | – | 0.049 | –
L22R | 0.0358 | 0.0461 | 0.0376 | 0.0497 | 0.0542 | 0.0402 | – | 0.0422 | 0.0463 | 0.0692 | 0.044 | 0.0468 | – | 0.0618 | 0.0473 | 0.0432 | 0.0598 | 0.0342
